Out of some 340,000 compounds screened, about 6,900 (2%) were called active. Cut-off read from the data, not from the text of the source: active = inhibition above about 30%; inactive = below that, where a call was filed. This is a selection; strong and weak results do not stand in their true shares. Where no call is shown, the source filed none.
Target: D(2) dopamine receptor (Homo sapiens) (UniProt P14416)
Experiment: HTS Assay for Allosteric Antagonists of the Human D2 Dopamine Receptor: Primary Screen for Antagonists; note: 0% is about no effect
Details: HEK293 TREx D2 cells, calcium flux, dopamine EC80; at 10 µM; stronger effect = higher value
In short: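 Calcium flux kinetic readout in an inducible HEK293 TREx D2 line plated overnight at 30 C. After 180 s compound exposure, an EC80 dopamine challenge follows with another 180 s kinetic read to detect antagonism.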

UniProt P14416, sequence (P14416 whole entry, looked up): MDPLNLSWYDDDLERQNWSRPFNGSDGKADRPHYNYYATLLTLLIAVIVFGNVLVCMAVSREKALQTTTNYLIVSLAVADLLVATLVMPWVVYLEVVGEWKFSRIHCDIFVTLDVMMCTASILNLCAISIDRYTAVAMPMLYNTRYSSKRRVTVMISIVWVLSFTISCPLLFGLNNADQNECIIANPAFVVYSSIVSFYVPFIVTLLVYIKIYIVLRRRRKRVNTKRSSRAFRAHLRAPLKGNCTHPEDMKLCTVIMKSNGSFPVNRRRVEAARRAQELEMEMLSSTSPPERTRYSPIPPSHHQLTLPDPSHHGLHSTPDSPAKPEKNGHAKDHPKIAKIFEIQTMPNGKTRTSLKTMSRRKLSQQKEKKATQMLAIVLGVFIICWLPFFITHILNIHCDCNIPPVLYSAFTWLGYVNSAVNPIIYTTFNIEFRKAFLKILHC

Row | Structure (SMILES) | inhibition
1 | O=C(Nc1ccc(F)cc1F)c1ccc2c(c1)CCN2S(=O)(=O)c1ccc(Cl)cc1 | -0.0254%
2 | CCOc1ccc(CNC(=O)Cn2ccc3cc(S(=O)(=O)N4CCCCCC4)ccc32)cc1 | -14.5%
3 | CCCn1c(=N)c(C(=O)NCc2cccnc2)cc2c(=O)n3ccccc3nc21 | -0.611%
4 | COc1ccc(NC(=O)C(Cc2ccccc2)NS(=O)(=O)c2ccc3c(c2)CCN3C(C)=O)cc1 (stereo not given) | 13.6%
5 | CCOC(=O)c1cc(OC(=O)c2ccc(OC)cc2)n(-c2ccccc2)n1 | 10.4%
6 | COc1ccccc1-c1cc2nc(C)c(CCC(=O)NCCc3ccc(SC)cc3)c(C)n2n1 | -21%
7 | Cc1ccc(C)c(CNC(=O)c2ccc3c(c2)nc2n3CCC(C)C2)c1 (stereo not given) | 7.45%
8 | CCOC(=O)Cc1ccc(NC(=O)Nc2cc3c(cc2N2CCCCC2)n(C)c(=O)n3C)cc1 | 9.35%
9 | O=C(Nc1nc2ccc(S(=O)(=O)N3CCOCC3)cc2s1)c1cccs1 | active: 56.6%
10 | CCN(CC)c1ccc(NC(=O)c2sc3ccccc3c2Cl)cc1 | -6.43%
11 | COc1ccc(OC)c(-c2noc(N3CCN(c4cc(C)ccc4C)CC3)n2)c1 | -8.93%
12 | CCOc1ccc(NC(=O)C2CCN(S(=O)(=O)c3c(C)noc3/C=C/c3c(C)cc(C)cc3C)CC2)cc1 | -16.5%
13 | Cc1csc2ncnc(NC3CCN(Cc4ccccc4)CC3)c12 | active: 78.6%
14 | CCOC(=O)c1ccc(NS(=O)(=O)c2ccc3c(c2)OCCO3)cc1 | 3.34%
15 | CCCC(=O)Nc1cccc(-c2cn3cccnc3n2)c1 | 5.23%
16 | Cc1ccc(CNc2ncnc3c2c(-c2ccccc2)cn3-c2ccccc2)cc1 | -0.934%
17 | CCCSc1nc(-c2ccc(OC)cc2)cc(-c2ccccc2OC)c1C#N | -1.56%
18 | COc1ccc(Br)cc1CNC(=O)c1cc(=O)[nH]c2ccc(S(=O)(=O)N3CCCCC3)cc12 | 8.48%
19 | CC(C)Sc1n[nH]c2nc3c(c(=O)n12)C1(CCCC1)Cc1ccccc1-3 | active: 54.6%
20 | Cc1cccc(C)c1NC(=O)CN(Cc1ccc(Br)cc1)S(=O)(=O)c1ccccc1 | -13.1%
21 | COc1ccc(Cl)cc1Nc1cc(C)nc2nc(-c3ccccc3C)nn12 | -14.5%
22 | COc1ccc(-c2noc(N3CCC(C(=O)Nc4ccc(OC)c(OC)c4)CC3)n2)cc1 | -5.98%
23 | O=c1c2cc3c(cc2n(Cc2ccccc2)c(=O)n1Cc1nc(-c2ccccc2)no1)OCO3 | -8.19%
24 | COc1ccc(NC(=O)N2CCN(S(=O)(=O)c3ccc4c(ccn4C)c3)CC2)cc1OC | 4.63%

Row | Structure (SMILES) | inhibition
25 | CCC1CN(C(=O)NCc2ccccc2)c2cc(C)ccc2O1 (stereo not given) | 3.9%
26 | COCCCNC(=O)C(C)n1c2ccccc2c2cnn(C)c(=O)c21 (stereo not given) | 2.66%
27 | O=C(Nc1ccc(Cl)c(C(F)(F)F)c1)c1ccc2c(c1)CCN2S(=O)(=O)c1ccccc1 | 1.97%
28 | COc1ccc(NC(=O)CN2C(=O)CSc3ccc(S(=O)(=O)N(C)C)cc32)cc1Cl | -2.84%
29 | COc1cc(NS(C)(=O)=O)cc(OC)c1OC | active: 30.4%
30 | Cc1ccccc1Cn1nnc2c(=O)[nH]c(C3CCN(C(=O)c4ccccc4Cl)CC3)nc21 | 0.698%
31 | COc1ccc(NC(=O)C2CCN(C(=O)N3CCOc4ccccc43)CC2)cc1 | -4.8%
32 | Cc1ccc2occ(CC(=O)Nc3ccc(S(=O)(=O)N4CCCC(C)C4)cc3)c2c1 (stereo not given) | 2.33%
33 | Cc1ccc(-n2ncc(C(=O)NCc3ccccn3)c2C2CCN(C(=O)OC(C)(C)C)CC2)c(C)c1 | -18.8%
34 | COc1ccc(CNC(=O)CCCn2c(=O)c3cccn3c3ccc(F)cc32)cc1OC | 11%
35 | CCN(C(=O)c1cc2c(=O)n(CC)c3ccccc3c2s1)c1cccc(C(F)(F)F)c1 | -17.1%
36 | Cn1nc(-c2ccc(OCC(=O)Nc3ccc(Cl)cc3)cc2)c2ccccc2c1=O | 5.37%
37 | COc1ccc(Br)cc1CNC(=O)c1cnc2sc(N3CCCCCC3)nn2c1=O | -4.55%
38 | CCC(C(=O)Nc1ccccc1)n1nc(-c2cc(C)ccc2C)ccc1=O (stereo not given) | 13.4%
39 | Cc1cccc(NC(=O)C2CCCN(S(=O)(=O)c3c(C)n[nH]c3C)C2)c1 (stereo not given) | -7.88%
40 | CSc1ccc(CCNC(=O)Cn2ncn3c(cc4ccccc43)c2=O)cc1 | -6.48%
41 | CCN1C(=O)N(c2ccc(C(C)=O)cc2)S(=O)(=O)c2ccccc21 | 19.5%
42 | Cc1ccc(CN2C(=O)C(=O)c3cc(Br)cc(C)c32)cc1 | -0.512%
43 | Cc1ccccc1Nc1c(-c2cccnc2)nc2cccc(C)n12 | 14%
44 | CC(=O)Nc1nonc1-c1nnc(SCC(=O)Nc2cccc(C)c2C)n1-c1ccccc1 | -1.44%
45 | COc1cc(C(=O)Nc2cccc(OCc3cc(=O)n4cc(C)sc4n3)c2)cc(OC)c1OC | -4.62%
46 | COc1ccc(Cn2cc(C(=O)c3ccc(F)cc3)c(=O)c3cc4c(cc32)OCCO4)cc1 | -0.913%
47 | Cc1nn(C)c(C)c1CCNC(=O)Nc1cccc(Cl)c1C | -12.7%
48 | COc1ccc(-c2nc3ccccc3o2)cc1NC(=O)c1ccc(-c2ccc(Br)cc2)o1 | -11.4%

Row | Structure (SMILES) | inhibition
49 | COc1ccc(-c2nc(CCNC(=O)c3c(F)cccc3Cl)cs2)cc1 | 19.7%
50 | CCCCNc1ccc(-c2nc(-c3ccncc3)no2)cc1[N+](=O)[O-] | 13%
51 | COc1cccc(NC(=O)Cn2c(=O)ccc3cc(S(=O)(=O)N4CCC(C)CC4)ccc32)c1 | -16%
52 | COc1ccc(Cl)cc1S(=O)(=O)N1CCN(CC(=O)Nc2ccccc2C(F)(F)F)CC1 | 0.836%
53 | CCOc1ccc(-n2nc3ccc(NC(=O)c4cccc(F)c4)cc3n2)cc1 | 2.3%
54 | CCSc1nc2c([nH]c3ccccc32)c(=O)n1-c1cccc(OC)c1 | 17.3%
55 | CCOc1ccc(-c2nnc(SCC(=O)NC(C)CC)nc2-c2ccc(OCC)c(OC)c2)cc1OC (stereo not given) | -14.6%
56 | COc1ccc(-c2c(C#N)c(SCC(=O)Nc3ccc(C)cc3)nc(C)c2C(=O)Nc2ccccc2)cc1 | 8.87%
57 | Cc1ccc(CNC(=O)CSc2nc(=O)n(Cc3ccco3)c3c2CCC3)cc1 | -12.5%
58 | COc1ccc(C2=NC3(CCCCCC3)N(CC(=O)Nc3cccc(Cl)c3)C2=O)cc1 | -4.3%
59 | Cc1ccn2c(Nc3ccc4c(c3)OCO4)c(-c3ccc(Cl)cc3)nc2c1 | -6.13%
60 | COc1cccc(CNC(=O)CN2CCCN(Cc3ccccc3)S2(=O)=O)c1 | 20%
61 | O=C(Nc1ccc(F)c(F)c1)c1cc(S(=O)(=O)NCc2ccc3c(c2)OCO3)ccc1F | -16.2%
62 | Cn1c2c(c(=O)n(C)c1=O)C(c1ccccc1[N+](=O)[O-])CC(=O)N2 (stereo not given) | -22.1%
63 | COc1ccccc1CNc1ccc(-c2nc(-c3ccccc3C)no2)cc1[N+](=O)[O-] | -1.18%
64 | CCc1ccccc1NC(=O)CSc1nc2n[nH]c(C)c2c(=N)n1-c1cccc(C)c1 | -16.2%
65 | COc1ccc(-c2nn(-c3ccc(F)cc3)c3c2cnc2cc4c(cc23)OCO4)cc1 | 10.3%
66 | CCOc1nc(NC(=O)NS(=O)(=O)Oc2cccc(Cl)c2)nc(-c2ccccc2)n1 | 2.11%
67 | Cc1cc(C)cc(NC(=O)C2CCN(C(=O)c3cnn(-c4ccccc4)c3-n3cccc3)CC2)c1 | 4.86%
68 | CCN(CC)CCNC(=O)c1ccc(NC(=O)COc2ccc3c(c2)CCC3)cc1 | active: 32.3%
69 | CC1CCn2c(nc3cc(C(=O)NCc4ccc(F)cc4)ccc32)C1 (stereo not given) | 10.7%
70 | Cc1ccc2c(c1)cc1c(=O)n(CC(=O)NC(C)CCc3ccccc3)nc(C)n12 (stereo not given) | -9.45%
71 | O=C(NCc1nc2ccccc2[nH]1)C1=C[C@H](C2CC2)C[C@H](OCc2ccc(CO)cc2)O1 | active: 40%
72 | O=C(NCc1cccs1)c1ccc(CSc2nc3cccnc3n2Cc2ccc(F)cc2)cc1 | -1.87%

Row | Structure (SMILES) | inhibition
73 | CC1CCN(c2ccc(-c3cccc(NS(=O)(=O)c4cccs4)c3)nn2)CC1 | -2.88%
74 | CC(=O)c1cccc(NC(=O)Cn2c(=O)oc3cc(S(=O)(=O)NCc4ccccc4)ccc32)c1 | 5.82%
75 | Cc1ccc(CNC(=O)c2nnn(Cc3ccc(F)cc3)c2N)cc1 | 4.01%
76 | COc1ccc(OCc2ccc(-c3nc(C#N)c(N4CCC(C(N)=O)CC4)o3)o2)cc1 | -12.8%
77 | O=S(=O)(Nc1ccc(F)cc1F)c1ccc(Br)s1 | 18.8%
78 | COc1ccc(CCNC(=O)c2cnc3sc(N4CCOCC4)nn3c2=O)cc1OC | -3.72%
79 | O=C(Nc1cc(-c2nc3cc(Cl)ccc3o2)ccc1Cl)c1cccc2ccccc12 | 10.1%
80 | COc1ccc(CCNC(=O)c2c[nH]n3c(=O)c(Cc4ccccc4Cl)c(C)nc23)cc1OC | -12.3%
81 | COc1ccc(C2c3c(n(C)c4ccccc34)C(=O)N2CC(=O)Nc2ccccc2Cl)cc1 (stereo not given) | -1.73%
82 | O=C(c1ccc(Nc2nc3ccccc3n3nnnc23)cc1)N1CCN(c2ccc(F)cc2)CC1 | -1.29%
83 | COc1cc(NC(=O)c2cc3nc(-c4ccc(C)cc4)cc(C(F)(F)F)n3n2)cc(OC)c1OC | -1.37%
84 | CCc1ccc(NC(=O)c2cc(S(=O)(=O)N3CCCCC3)c[nH]2)cc1 | 15%
85 | COc1ccc(CNc2n[nH]c(-c3ccco3)n2)cc1OC | 7.91%
86 | O=C(NCCc1ccccc1)c1cc(-c2cccc(Cl)c2)on1 | -1.35%
87 | COc1cc(NC(=O)Cn2c(=O)n(Cc3ccccc3Cl)c(=O)c3cc(OC)c(OC)cc32)cc(OC)c1 | 11.2%
88 | CCCN(C(=O)c1cc2c(=O)n(CC)c3ccccc3c2s1)c1ccccc1F | 6.18%
89 | CCCc1c(C(=O)OCC)nnc2c(-c3ccccc3)c(C)nn12 | -10.4%
90 | COc1ccc(CCN2C(=O)N(c3ccc(F)cc3)C(=O)C2CC(=O)Nc2ccccc2)cc1OC (stereo not given) | -15.4%
91 | O=C(Nc1nnc(SCC(=O)N2CCCCC2)s1)c1ccc(F)cc1F | active: 55.3%
92 | Fc1ccc([C@@H]2Nc3ccccc3[C@@H]3C=CC[C@@H]32)cc1 | 6.37%
93 | Cc1ccc(C)c(NC(=O)CSc2ncc3c(n2)-c2ccccc2N(Cc2ccccc2C)S3(=O)=O)c1 | -2.9%
94 | COc1ccc(/C=C/c2nc(C#N)c(N3CCCCCC3)o2)cc1OC | 0.513%
95 | Cc1nnc(N2CCC(C(=O)N3CCCCC3)CC2)c2nn(-c3ccccc3)c(C)c12 | 8.63%

Source: PubChem BioAssay AID485344 (National Center for Advancing Translational Sciences (NCATS), 2010)
